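Interpolation was linear, between the two tested concentrations surrounding the appropriate level; five concentrations were tested over 48 hours in 96-well plates. GI50 marks 50% less growth. TGI: concentration producing complete growth inhibition.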
Tested on: NCI-H322M lung
Assay: DTP human tumour cell line panel, 48 h

Going from `CC(=O)NC1C(OCc2ccccc2)OC(CO)C(O)C1OC(C)C(=O)NC(C(=O)NC(CCC(=O)NCCCCNc1c2ccccc2nc2cccc([N+](=O)[O-])c12)C(N)=O)C(C)C` (stereo unspecified) to `CCOC(=O)c1cc(C)nc2c1c(=O)n(-c1ccccc1)c(=O)n2CCCCN1CCN(c2ccccc2)CC1`, the TGI rises from 28.8 µM to > 100 µM.

`CC1=NN(C(=O)c2ccc(Cl)cc2)C(=O)/C1=C/c1ccccc1O` and `O=C(Nn1c(-c2ccccc2)nc2ccccc2c1=O)c1ccccc1O` cannot be ordered by TGI: > 100 µM for the first, > 100 µM for the second.

First: C=CCC1=C(C)C[C@@H]2CCC(=O)C=C12
Second: C=CCOn1c(C=C)nc2ccc(C)cc21
The TGI of the first is higher: > 100 µM for the first, 47.2 µM for the second.

`c1ccc2c(c1)oc1ccc3nsnc3c12` and `O=C1CC(c2[nH]nc3ccccc23)C(=O)N1c1ccccc1` (stereo unspecified) cannot be ordered by TGI: > 100 µM for the first, > 100 µM for the second.

First: O=C1c2c(O)cccc2-c2nn(CCNCCO)c3ccc(NCCNCCO)c1c23
Second: CC(C)(C)OC(=O)NCCCn1c2c(c3ccccc3c1=O)C(=O)c1ccccc1-2
The TGI of the first is lower: 5.77 µM for the first, > 100 µM for the second.

`COC(=O)C1=C(C(=O)OC)C2(C)C=CC1O2` (stereo unspecified) and `CC(=O)O[C@]1(C)OC(=O)[C@@H](CC(C)C)N1[N+](=O)[O-]` cannot be ordered by TGI: > 100 µM for the first, > 100 µM for the second.

`COc1cc(C)c(C2NC(=O)c3ccccc3N2)cc1C` (stereo unspecified) and `Cc1ccccc1-c1nc2c(C(=O)NCCN(C)C)cccc2[nH]1` cannot be ordered by TGI: > 100 µM for the first, > 100 µM for the second.

`COc1cccc(N[C@@H]2c3cc4c(cc3C(c3cc(OC)c(O)c(OC)c3)[C@H]3C(=O)OCC32)OCO4)c1` (stereo partly specified) and `COc1cc(C2c3cc4c(cc3C3OC[C@@H]2C3CO)OCO4)cc(OC)c1OC` (stereo partly specified) cannot be ordered by TGI: > 100 µM for the first, > 100 µM for the second.

Compared with `C1CC[N-]CC1.CC(=N\O)/C(C)=N/O.CC(=N\O)/C(C)=N/O.OC1[CH-]CCCC1.[Co+2]`, `C=C1CCC2(C#N)[C@H]3[C@H](CC[C@@H]2C)[C@@H](C)C[C@@H](CC(C)(C)NC(=O)CN2CCC2=O)[C@H]13` (stereo partly specified) is lower in TGI: > 100 µM for the first, 42.2 µM for the second.

First: COc1cc2cc(C(=O)N3CC(COS(C)(=O)=O)c4ccc(O)cc43)[nH]c2c(OC)c1OC (stereo unspecified)
Second: CCOC(=O)N1CCc2cc(OC)c(OC)cc2/C1=C\c1ccc(OC)c(OC)c1
The TGI of the first is lower: 0.118 µM for the first, > 100 µM for the second.

Going from `C/C(=N\Nc1nc2ccccc2n1C)c1cc2ccccc2cn1` to `O=S(=O)(NCn1ccc2ccccc21)c1ccccc1`, the TGI rises from 12.4 µM to > 100 µM.

Compared with `C#CCn1c(=O)c(C)cn(/C(=C\C(=O)OCC)C(=O)OCC)c1=O`, `CCOC(=O)CCn1ncc(Cl)c(Cl)c1=O` is 1.6-fold lower in TGI: 43.8 µM for the first, 27.1 µM for the second.

`CN1C(=O)C(O)C[C@@H]1c1ccccc1` (stereo partly specified) and `O=C1CCC(N2C(=O)c3ccccc3C2=O)C(=O)N1` (stereo unspecified) cannot be ordered by TGI: > 100 µM for the first, > 100 µM for the second.

`O=C(NCCc1ccccn1)OCc1nc2nc(Cl)nc(N3CCOCC3)c2[nH]1` and `NCCOCCOCCNc1nc(-c2ccc(Cl)cc2)nc(N2CCN(c3ccccn3)CC2)n1` are within 1.5-fold of each other in TGI: 18.7 µM for the first, 13.2 µM for the second.

`COc1ccc(-c2oc3cc(O)cc(O)c3c(=O)c2OC)cc1` and `COc1ccc(/C(Cl)=C/c2cc(OC)ccc2OC)cc1` cannot be ordered by TGI: > 100 µM for the first, > 100 µM for the second.

`S=c1nc(N/N=C/c2ccco2)c2cn[nH]c2[nH]1` and `O=c1cc(N/N=C/c2ccc(F)cc2)c2cc(Cl)ccc2[nH]1` cannot be ordered by TGI: > 100 µM for the first, > 100 µM for the second.

Going from `COc1cc2c(cc1OCCCCCCN1CCN(CC(=O)Nc3ccc(Cl)cc3C(=O)c3ccccc3Cl)CC1)N=CC1CCCN1C2=O` (stereo unspecified) to `COc1ncnc(S(=O)(=O)c2ccc(N=C3C(=O)N(CN4CCN(c5cc6c(cc5F)c(=O)c(C(=O)O)cn6C5CC5)CC4)c4ccc(Cl)cc43)cc2)c1OC`, the TGI rises from 1.16 µM to 36.8 µM (32-fold).

`NCc1cccc(O)c1O` and `NCC(O)CSCc1ccc(Cl)cc1` (stereo unspecified) cannot be ordered by TGI: > 100 µM for the first, > 100 µM for the second.

`N.N.N.N.N.O=[N+]([O-])[O-].[Co+3].[O-][Cl+3]([O-])([O-])[O-]` and `CC(C)CCCC(C)[C@H]1CCC2[C@@H]3CCC4Nc5c(cnn5-c5ccccc5)C[C@]4(C)C3CC[C@@]21C` (stereo partly specified) cannot be ordered by TGI: > 100 µM for the first, > 100 µM for the second.

`O=C(c1cccs1)N1CCN(C(=O)c2cccs2)C1=S` and `O=c1[nH]c2ccccc2n1CCCN1CCC(n2c(=O)[nH]c3cc(Cl)ccc32)CC1` are within 1.5-fold of each other in TGI: 28.6 µM for the first, 40 µM for the second.

Compared with `CC(C)Cc1ccc(C(C)CC2=CCC(CN(C)C)C2=O)cc1` (stereo unspecified), `CN(C)/N=N/c1nc2c(c(=O)n(C)c(=O)n2C)n1CC(O)CO` (stereo unspecified) is higher in TGI: 31.4 µM for the first, > 100 µM for the second.

Compared with `Cc1cc2c([nH]c3ccccc32)c(O)c1-c1c(C)cc2c([nH]c3ccccc32)c1O`, `COC(=O)COc1ccc(/C=C2/N=C(c3ccccc3)N(c3c(C)n(C)n(-c4ccccc4)c3=O)C2=O)cc1` is 2.1-fold higher in TGI: 29.9 µM for the first, 61.7 µM for the second.

`O=c1c(-c2ccccc2)c(SCCO)n(-c2ccccc2)c(=S)n1-c1ccccc1` and `O=C(N/N=C/C=C/c1ccccc1)c1ccccc1Nc1ccccc1C(=O)N/N=C/C=C/c1ccccc1` cannot be ordered by TGI: > 100 µM for the first, > 100 µM for the second.

Going from `CC(=O)OCC(=O)[C@@]12OC(C)(C)O[C@@H]1C[C@H]1[C@@H]3CC(C=O)=C4C=C(OCCCl)CC[C@]4(C)[C@@]3(F)[C@@H](O)C[C@@]12C` to `COC(=O)C1C(O)C(C)C(O)C(C)C=C(C)C2=C3C(=C(C)C(=O)c4c(O)c(c(C)c(OC(C)=O)c43)NC(=O)C(C)=C/C=C\C(C)C(O)C(C)C1O)OCO2` (stereo unspecified), the TGI rises from 96.4 µM to > 100 µM.

Compared with `COc1cc(C2C3=C(COC3=O)Oc3cc4c(cc32)OCO4)cc(OC)c1O` (stereo unspecified), `COC(=O)C1C(=O)N(C)C(=O)N2CCCC12` (stereo unspecified) is higher in TGI: 49.5 µM for the first, > 100 µM for the second.

Compared with `C1CC[N-]CC1.CC(=N\O)/C(C)=N/O.CC(=N\O)/C(C)=N/O.OC1[CH-]CCCC1.[Co+2]`, `C=C1CCC2(C#N)[C@H]3[C@H](CC[C@@H]2C)[C@@H](C)C[C@@H](CC(C)(C)NC(=O)CN2CCC2=O)[C@H]13` (stereo partly specified) is lower in GI50: > 100 µM for the first, 12.2 µM for the second.

Going from `O=C(NCCc1ccccn1)OCc1nc2nc(Cl)nc(N3CCOCC3)c2[nH]1` to `NCCOCCOCCNc1nc(-c2ccc(Cl)cc2)nc(N2CCN(c3ccccn3)CC2)n1`, the GI50 falls from 5.68 µM to 3.55 µM (1.6-fold).

Compared with `S=c1nc(N/N=C/c2ccco2)c2cn[nH]c2[nH]1`, `O=c1cc(N/N=C/c2ccc(F)cc2)c2cc(Cl)ccc2[nH]1` is 2.1-fold higher in GI50: 10.8 µM for the first, 22.2 µM for the second.

Compared with `COc1cc2c(cc1OCCCCCCN1CCN(CC(=O)Nc3ccc(Cl)cc3C(=O)c3ccccc3Cl)CC1)N=CC1CCCN1C2=O` (stereo unspecified), `COc1ncnc(S(=O)(=O)c2ccc(N=C3C(=O)N(CN4CCN(c5cc6c(cc5F)c(=O)c(C(=O)O)cn6C5CC5)CC4)c4ccc(Cl)cc43)cc2)c1OC` is 21-fold higher in GI50: 0.514 µM for the first, 11 µM for the second.

First: N.N.N.N.N.O=[N+]([O-])[O-].[Co+3].[O-][Cl+3]([O-])([O-])[O-]
Second: CC(C)(C)OC(=O)NCCCn1c2c(c3ccccc3c1=O)C(=O)c1ccccc1-2
The GI50 of the first is higher: > 100 µM for the first, 76.9 µM for the second.

Work on `COC(=O)COc1ccc(/C=C2/N=C(c3ccccc3)N(c3c(C)n(C)n(-c4ccccc4)c3=O)C2=O)cc1` yielded a GI50 of 24.8 µM.

From PubChem BioAssay (NCI)
